Results taken from the supplement of paper PMC3334620.
In all, about 33,000 sequences were measured (“E-score (-0.5 to 0.5)”: median about -0.01, highest 2% from about 0.26 on). This is one part of the list.

These sequences were tested against Ste12 (UniProt P13574) (assay: PBM E-score (8-mer binding enrichment) (E-score (-0.5 to 0.5)); higher = stronger / more preferred TF binding; most listed sequences are background and not binding sites). Details: protein concentration: 200 nM; construct: GST-DNA-binding domain.
Procedure, shortened: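 Using PURExpress in vitro transcription/translation, GST-tagged yeast transcription factors were made in full-length or DNA-binding-domain form. These were applied at about 100-200 nM to double-stranded universal all-10-mer Agilent arrays, and bound protein was detected with fluorescent anti-GST. Scans were normalised with masliner before the Universal PBM Analysis Suite assigned E-scores to ungapped eight-base words pooled with their reverse complements.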

| Sequence | PBM E-score |
| --- | --- |
| AGGAATTG | 0.114 |
| ATGAAGCC | 0.154 |
| GTGATATA | -0.0521 |
| CACCTAGC | -0.0791 |
| ACTGAGTC | 0.021 |
| TCTTCACA | 0.178 |
| CGCACAAC | 0.0739 |
| ATCTCCGA | -0.0137 |
| CGGACGAG | -0.118 |
| AATGAATA | 0.0177 |
| GTACCGCA | 0.131 |
| CCAACACG | 0.00364 |
| GCCTGTCC | -0.189 |
| CTTACCAA | 0.168 |
| CTATACCC | 0.0192 |
| TGTCACAA | 0.3 |
| ACTAACCT | -0.0656 |
| ACGGAAAG | 0.187 |
| GACGCTAC | -0.0266 |
| GATGCTGA | -0.0794 |
| CGGGGCTA | 0.0495 |
| AAGTCTTG | -0.031 |

| Sequence | PBM E-score |
| --- | --- |
| CTTTACTC | -0.00567 |
| GGGTTTTA | 0.217 |
| ACGCCCGG | 0.105 |
| CACCCTCA | -0.13 |
| AAAAGCTA | 0.0471 |
| ATAAAGTA | 0.245 |
| CTGCTCCC | -0.146 |
| TCCTTAAA | 0.0914 |
| AGTACCCA | 0.0412 |
| AATCTCGG | 0.0621 |
| TCCGCAGA | 0.0106 |
| ATCCGCGC | -0.0259 |
| AAACCTGG | 0.0779 |
| CACGAGCA | -0.125 |
| GATCAACA | -0.0858 |
| CGTGAGAC | 0.0396 |
| GGCCTCAA | 0.0416 |
| AGCCCCGG | 0.146 |
| CCCTCAGC | -0.216 |
| AAATCACG | 0.128 |
| CCCGCGGC | 0.224 |
| CAGCCTCC | -0.265 |

| Sequence | PBM E-score |
| --- | --- |
| ATGTTACG | -0.0262 |
| ACTCGCAA | -0.0037 |
| CATACATG | 0.0988 |
| CTCCAAGC | -0.193 |
| GGGCGCGA | -0.0182 |
| AGAGGAAG | 0.113 |
| AGAAATAT | 0.243 |
| AATAACTA | 0.107 |
| CGTCGAGA | -0.00015 |
| GACGTGGC | -0.157 |
| CGGAGTAA | -0.0496 |
| CGGGACTC | -0.12 |
| ATCCCTGG | -0.155 |
| ATTAAAAT | 0.32 |
| CTTATTCA | -0.0544 |
| TAATAAGA | 0.037 |
| CAACTCCA | -0.095 |
| AATTGGAT | 0.0732 |
| GCTTTGGA | 0.0524 |
| AACATCGC | 0.0683 |
| GACGATCA | -0.0996 |
| ACGTCGCG | 0.0504 |

| Sequence | PBM E-score |
| --- | --- |
| GTCATAAA | 0.17 |
| AAACACGC | 0.288 |
| CAAGTAGG | -0.0651 |
| GACCTCTA | -0.0482 |
| TGTGCGAA | -0.0889 |
| AACATCTT | 0.0362 |
| AGCATCGA | -0.00056 |
| AGGATAAT | 0.173 |
| ATGCAAGA | 0.117 |
| GAAGTCTA | -0.0873 |
| ACCAGGCG | -0.127 |
| CGGTAGTC | -0.227 |
| TCCCACAA | -0.0278 |
| GCAATGAC | -0.255 |
| CCATTAAG | -0.00534 |
| AAAACATT | 0.28 |
| GGTCAGAC | -0.145 |
| ATCCATCA | 0.0451 |
| CCTTTCCA | -0.0171 |
| GCCTCTAA | -0.0521 |
